Test results reported in article PMC4336329 (PLoS ONE, 2015).
Hit rate of the full screen: of about 310,000 compounds, about 2,200 (0.71%) showed an effect of 50% or more. The effect is printed as a negative number. The list shows a part of the results.

The compounds below were run against human ether-à-go-go-related gene (hERG) potassium channel (human, UniProt Q12809) (assay: primary screen, population patch clamp on CHO cells stably expressing hERG).
human ether-à-go-go-related gene (hERG) potassium channel, sequence (Q12809 whole entry, looked up): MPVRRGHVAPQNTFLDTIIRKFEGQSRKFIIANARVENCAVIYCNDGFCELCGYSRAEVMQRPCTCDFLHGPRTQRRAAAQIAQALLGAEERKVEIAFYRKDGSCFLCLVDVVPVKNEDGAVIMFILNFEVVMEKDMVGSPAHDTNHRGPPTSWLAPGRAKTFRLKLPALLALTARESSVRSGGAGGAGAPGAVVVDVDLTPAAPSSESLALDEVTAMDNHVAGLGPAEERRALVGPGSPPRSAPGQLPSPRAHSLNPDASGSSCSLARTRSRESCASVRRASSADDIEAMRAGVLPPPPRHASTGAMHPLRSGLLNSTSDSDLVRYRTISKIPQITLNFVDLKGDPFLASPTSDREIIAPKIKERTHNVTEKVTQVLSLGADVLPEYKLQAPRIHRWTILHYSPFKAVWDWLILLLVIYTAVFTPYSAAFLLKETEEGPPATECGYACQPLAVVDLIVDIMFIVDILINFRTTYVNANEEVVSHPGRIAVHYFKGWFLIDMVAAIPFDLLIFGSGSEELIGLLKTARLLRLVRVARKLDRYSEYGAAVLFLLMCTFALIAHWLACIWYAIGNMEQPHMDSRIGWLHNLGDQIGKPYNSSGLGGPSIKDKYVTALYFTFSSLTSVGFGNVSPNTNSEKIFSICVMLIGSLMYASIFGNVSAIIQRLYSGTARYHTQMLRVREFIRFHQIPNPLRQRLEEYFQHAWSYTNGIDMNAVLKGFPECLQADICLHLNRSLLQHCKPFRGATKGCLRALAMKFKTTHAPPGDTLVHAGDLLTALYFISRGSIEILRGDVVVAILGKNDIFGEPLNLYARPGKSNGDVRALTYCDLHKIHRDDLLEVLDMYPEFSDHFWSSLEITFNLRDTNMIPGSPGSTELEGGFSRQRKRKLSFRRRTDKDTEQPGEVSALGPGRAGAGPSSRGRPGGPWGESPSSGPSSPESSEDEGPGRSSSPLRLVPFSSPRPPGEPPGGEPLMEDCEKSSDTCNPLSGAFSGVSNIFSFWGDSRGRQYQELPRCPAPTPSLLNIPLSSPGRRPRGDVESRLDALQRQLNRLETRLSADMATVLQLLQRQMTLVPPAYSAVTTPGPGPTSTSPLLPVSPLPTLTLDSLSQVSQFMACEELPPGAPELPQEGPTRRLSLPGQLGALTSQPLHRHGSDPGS

| SMILES | hERG current change (%, negative = inhibition) at 1uM [%] |
| --- | --- |
| CC(C)C[C@H](NC(=O)c1[nH]cnc1C(=O)N[C@@H](C)c1ccccc1)C(=O)OC(C)(C)C | 16.3 |
| Cl.N=c1c2c(n(Cc3ccccc3)c3c1CCC3)CCC2 | 7.98 |
| CCOc1ccc(-c2ncncc2-c2ccc(OC)cc2)c(O)c1 | -2.07 |
| CC1C(=O)N2CCCc3cc(S(=O)(=O)N(C)c4ccccc4)cc1c32 (centres unmarked) | 17.8 |
| CCn1cc(C(=O)OCC(=O)NCc2ccc3c(c2)OCO3)c(=O)c2ccc(C)nc21 | 1.35 |
| Cc1ccc(NC(=O)CS(=O)CC(=O)NCCCN(C)c2ccccc2)cc1 (centres unmarked) | 3.83 |
| O=C1/C(=C/c2ccccc2)CSc2sccc21 | 2.58 |
| O=S1(=O)CCN(Cc2ccccn2)CC1 | -1.36 |
| O=c1[nH]c2cc3c(cc2cc1C(c1nnnn1Cc1ccccc1)N1CCN2CCCC2C1)OCCO3 (centres unmarked) | 7.96 |
| O=S(=O)(c1ccccc1)c1cnc(-c2cccnc2)nc1-c1ccc(Cl)cc1Cl | -2.32 |
| Cc1nc2ccccn2c1C(=O)N/N=C/c1ccccc1[N+](=O)[O-] | 12.5 |
| CC(C)Cc1nnc(NC(=O)CCC(=O)N2CCN(c3ccc(F)cc3)CC2)s1 | 10.9 |
| COc1ccc(S(=O)(=O)N2CCOC2CNC(=O)C(=O)NCc2ccccn2)cc1 (centres unmarked) | 1.15 |
| NS(=O)(=O)c1ccc(NC(=O)C2COc3ccccc3O2)cc1 (centres unmarked) | 14.7 |
| COc1cccc(Nc2c(Nc3cccc(OC)c3)c(=O)c2=O)c1 | 17.5 |
| Cc1csc(NC(=O)c2cc[n+]([O-])cc2)n1 | -8.87 |
| COc1ccc2[nH]cc(CCNC(=O)C3CCCCC3)c2c1 | 12.6 |
| CCCCCCC(=O)Nc1c(O)c2ccccc2[nH]c1=O | 4.53 |
| O=C(O)Cn1nc(-c2ccccc2)oc1=O | -1.31 |
| CCC(C)c1ccccc1NC(=O)CN1CCN(C/C=C/c2ccccc2)CC1 (centres unmarked) | -10.5 |
| N/C(=N\OC(=O)CCCc1ccccc1)c1cccc([N+](=O)[O-])c1 | 3.64 |
| CCc1cc2c(=O)[nH]c(N3CCOCC3)nc2s1 | 3.31 |
| COc1ccc(OCCOC(=O)c2ccc(-n3cnnn3)cc2)cc1 | 0.347 |

| SMILES | hERG current change (%, negative = inhibition) at 1uM [%] |
| --- | --- |
| CSc1ccccc1C(=O)N1CCN(S(=O)(=O)c2sc(C(=O)O)c(C)c2C(=O)O)CC1 | 0.019 |
| CCOC(=O)N1CCN(CC(O)c2ccc3c(c2)CCN3)CC1 (centres unmarked) | 7.76 |
| COc1cccc(CNC(=O)CCc2nc3cc(S(=O)(=O)N4CCOCC4)ccc3n2C)c1 | 9.08 |
| Cc1sc2ncnc(N/N=C/c3ccccc3O)c2c1C | 7.96 |
| N/C(=N\c1nc2c(c(=O)[nH]1)CCCC2)Nc1ccccc1 | -0.122 |
| Cl.Fc1cccc(Cl)c1CNC(c1ccccc1)c1ccccc1 | 8.24 |
| CCCC(=O)NC(=S)Nc1ccc(C(C)=O)cc1 | 17.2 |
| O=C(Nc1ccccc1)c1cc2ccccc2[nH]1 | 8.73 |
| CC(NC(=O)CNC(=O)c1ccco1)c1ccc(S(N)(=O)=O)cc1 (centres unmarked) | 14.6 |
| COc1cc(CCC(=O)OCC(=O)Nc2ccc(F)cc2F)cc(OC)c1OC | 19.6 |
| CCCOc1cccc(C(=O)Nc2cccc(NC(=O)c3ccco3)c2)c1 | 4.36 |
| COc1ccc(C(=O)COC(=O)CN2C(=O)c3ccccc3C2=O)c(OC)c1 | 6.04 |
| O=C(NCC1CC1)Nc1cccc(C(F)(F)F)c1 | 14.4 |
| O=C(CCNS(=O)(=O)c1cccc2nonc12)NCc1cccs1 | 8.08 |
| CCc1ccccc1N1C(=O)C2C3C=CC(CC3)C2C1=O (centres unmarked) | 12.2 |
| Cc1ccc(S(=O)(=O)NNC(=O)c2csnn2)cc1 | 4 |
| COc1cc(/C=N/NC(=O)c2ccncc2)ccc1OC(=O)c1cccc(Br)c1 | 3.27 |
| CCOc1ccc(N2Nc3n[nH]c(N)c3N2)cc1 | 7.16 |
| CCSc1nc2sc3c(c2c(=O)n1-c1ccc(OC)cc1)CCN(C)C3 | 6.26 |
| Cc1c(Cl)c([N+](=O)[O-])nn1CC(=O)NCC(C)C | 5.93 |
| O=C(NC12CC3CC(CC(C3)C1)C2)c1ccc(-c2cccc(Cl)c2)o1 | 21.9 |
| CC1=C(C)CC(C(=O)NC2CCN(C(C)C)CC2)C(C(=O)O)C1 (centres unmarked) | 17 |
| CCCCCCNC(=O)CC(c1ccccc1)c1cc(Br)ccc1O (centres unmarked) | 8.74 |

| SMILES | hERG current change (%, negative = inhibition) at 1uM [%] |
| --- | --- |
| CCCCN1C(=O)C(C2c3ccccc3C(=O)N2Cc2ccccc2)C(=O)NC1=S (centres unmarked) | -13.4 |
| O=C(Cc1cccs1)NCCc1ccc(F)cc1 | 14.5 |
| Cc1ccc(N(C(=O)Cn2nnc3ccccc32)C(C(=O)NC2CCCCC2)c2cn(C)nc2C)cc1 (centres unmarked) | 15.7 |
| COc1ccc(-c2ccc(OC)cc2)cc1 | 0.776 |
| COc1ccc(CN(C)C(=O)c2ccc(NS(=O)(=O)c3ccccc3)cc2)c(OC)c1 | -10.7 |
| COc1ccccc1N1CCN(C2CCN(C3CCC(c4ccccc4)CC3)CC2)CC1.O=C(O)C(=O)O (centres unmarked) | -34.5 |
| Cc1ccc(C(=O)NC(=S)NNC(=O)c2ccccc2)cc1 | 25.9 |
| CC(C)OCCCNC(=O)c1ccc2c(c1)NC(=O)c1ccccc1S2 | 11.9 |
| CCOC(=O)Cn1cc(/C=N/NC(=O)c2cc3ccccc3o2)c2ccccc21 | 12.9 |
| O=C(COc1ccc(Cl)cc1)N1CCCCC1 | 4.93 |
| CCCCN(CCCC)CCCOC(=O)c1ccc(N)cc1 | -13.2 |
| CC1C(=O)N2CCCc3cc(NC(=O)C(=O)NCCCc4ccccc4)cc1c32 (centres unmarked) | 4.72 |
| Cc1nnc(SCC(=O)N(CC(C)C)C2CCS(=O)(=O)C2)n1N (centres unmarked) | 13.5 |
| Cc1ccc(C(=O)N/C(=C/c2ccco2)C(=O)NCCc2c[nH]c3ccccc23)cc1 | 7.53 |
| COc1cc(C(=O)N2CCCc3ccccc32)cc(OC)c1OC | 10.7 |
| CC(C)C(C)(C#N)NC(=O)CSc1nncn1-c1ccccc1 (centres unmarked) | 12.2 |
| CCC1(c2ccccc2)C(=O)N(COC)C(=O)N(COC)C1=O | 16.8 |
| CC(OC(=O)CCN=C1NS(=O)(=O)c2ccccc21)C(=O)N(C)C1CCCCC1 (centres unmarked) | 17.3 |
| Cc1c(Br)c(C(F)(F)F)nn1CC(=O)NCc1ccccc1 | 19.1 |
| O=C(CSc1nc(-c2ccccc2)c(-c2ccccc2)[nH]1)NCC1CCCO1 (centres unmarked) | 11.7 |
| CCC(C)(C)n1nnnc1C(c1ccccc1F)N1CCN(C(=O)c2ccco2)CC1 (centres unmarked) | -2.07 |
| COc1ccccc1NCc1ccc([N+](=O)[O-])s1 | -9.71 |
| CCOC(=O)c1cccc(C(=O)Nc2nc3ccc(OC)cc3s2)n1 | 11.6 |

| SMILES | hERG current change (%, negative = inhibition) at 1uM [%] |
| --- | --- |
| Cc1ccc(S(=O)(=O)N2CCC(=O)N(C(COCc3cccc(C(F)(F)F)c3)C(C)C)CC2)cc1 (centres unmarked) | 0.419 |
| Fc1cccc(NC(=S)NCc2ccccc2Cl)c1 | 13.8 |
| N#Cc1ccsc1NC(=O)CN1CCN(c2ccc(O)cc2)CC1 | 6.33 |
| Cc1nnc(NC(=O)c2cccc(S(=O)(=O)N3CCCC3)c2)s1 | 10.1 |
| O=C(NCCN1CCOCC1)/C(=C/c1ccc(F)cc1)NC(=O)c1ccccc1 | -58.4 |
| NC(=O)NC(=O)CSc1nnc(-c2ccc(Cl)cc2)n1CC1CCCO1 (centres unmarked) | 16.1 |
| O=C(Nc1cccc(O)c1)C1CC(c2ccc(Cl)cc2)=NO1 (centres unmarked) | 1.25 |
| O=C(CSc1ccc(-c2ccncc2)nn1)N1CCCC1 | 2.04 |
| CCOc1ccccc1N(CC(=O)N1CCCCCC1)S(=O)(=O)c1ccc(C)cc1 | 3.7 |
| Cc1cc(CN2CCCCC2C(=O)Nc2ccc(Oc3cccnc3)cc2)oc1C (centres unmarked) | 7.01 |
| COc1cccc(-c2cc(C(=O)NCC3CCCO3)c3cc(C)cc(C)c3n2)c1 (centres unmarked) | 14.8 |
| O=C(NC(=S)N1CCCCC1)c1cccnc1 | 14.3 |
| O=C(NC(=S)Nc1ccc(N2CCCCC2)c(Cl)c1)c1cccs1 | 3.59 |
| Cc1cc2nc(-c3ccc(SCC(=O)Nc4ccc(S(=O)(=O)N5CCCC5)cc4)nc3)[nH]c2cc1C | 6.1 |
| O=C(O)CCCC(=O)Nc1nc(-c2ccc(F)cc2)cs1 | -3.64 |
| CCN(CC(=O)Nc1c(F)cccc1F)C(=O)COc1cccc2c1OC(C)(C)C2 | 4.46 |
| O=C1c2ccc(Cl)cc2S(=O)(=O)c2cccc(C(=O)N3CCN(c4ncc(Br)cn4)CC3)c21 | 3.23 |
| COc1cccc(C(C(=O)NC2CCCC2)N(C(=O)c2ccco2)C2CC2)c1OC (centres unmarked) | 15.2 |
| Cc1occc1C(=O)NNC(=O)Nc1ccc(Cl)c(Cl)c1 | 0.135 |
| CCN(CC)CCN(C(=O)c1ccc([N+](=O)[O-])cc1)c1nc2c(OC)cccc2s1.Cl | -53.4 |
